Measurements reported in the supplement of paper PMC8728848.
This is one part of the list.

How the values were obtained:
Test in all cases: glycan array binding signal (z-score within array); higher = stronger binding
Settings in all cases: glycan notation: IUPAC condensed, linker removed
[1] = target: Fuc(a1-2)Gal6S(b1-3)GlcNAc6S
Outline: (§1)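 Arrays were curated from the Consortium for Functional Glycomics database, 3228 in total, and kept only where the protein sequence was available. Binding is expressed as a within-array Z-score. This score was averaged across arrays of the same protein sequence at different concentrations or buffers and across linkers, and negative values can be read as non-binding.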

Fuc(a1-2)Gal6S(b1-4)Glc = target: Fuc(a1-2)Gal6S(b1-4)Glc
Outline: as §1

[2] = target: Fuc(a1-2)Gal6S(b1-4)Glc6S
Outline: as §1

Fuc(a1-2)[Gal(a1-3)]Gal = target: Fuc(a1-2)[Gal(a1-3)]Gal
Outline: as §1

[3] = target: Fuc(a1-2)[Gal(a1-3)]Gal(b1-3)GalNAc
Outline: as §1

[4] = target: Fuc(a1-2)[Gal(a1-3)]Gal(b1-3)GalNAc(b1-3)Gal(a1-4)Gal(b1-4)Glc
Outline: as §1

[5] = target: Fuc(a1-2)[Gal(a1-3)]Gal(b1-3)GlcNAc
Outline: as §1

[6] = target: Fuc(a1-2)[Gal(a1-3)]Gal(b1-3)GlcNAc(b1-2)Man(a1-3)[Fuc(a1-2)[Gal(a1-3)]Gal(b1-3)GlcNAc(b1-2)Man(a1-6)]Man(b1-4)GlcNAc(b1-4)GlcNAc
Outline: as §1

[7] = target: Fuc(a1-2)[Gal(a1-3)]Gal(b1-3)GlcNAc(b1-2)Man(a1-3)[Fuc(a1-2)[Gal(a1-3)]Gal(b1-3)GlcNAc(b1-2)Man(a1-6)]Man(b1-4)GlcNAc(b1-4)[Fuc(a1-6)]GlcNAc
Outline: as §1

[8] = target: Fuc(a1-2)[Gal(a1-3)]Gal(b1-3)GlcNAc(b1-3)GalNAc
Outline: as §1

[9] = target: Fuc(a1-2)[Gal(a1-3)]Gal(b1-3)GlcNAc(b1-6)GalNAc
Outline: as §1

[10] = target: Fuc(a1-2)[Gal(a1-3)]Gal(b1-4)Glc
Outline: as §1

[11] = target: Fuc(a1-2)[Gal(a1-3)]Gal(b1-4)GlcNAc
Outline: as §1

[12] = target: Fuc(a1-2)[Gal(a1-3)]Gal(b1-4)GlcNAc(b1-2)Man
Outline: as §1

[13] = target: Fuc(a1-2)[Gal(a1-3)]Gal(b1-4)GlcNAc(b1-2)Man(a1-3)[Fuc(a1-2)[Gal(a1-3)]Gal(b1-4)GlcNAc(b1-2)Man(a1-6)]Man(b1-4)GlcNAc(b1-4)GlcNAc
Outline: as §1

[14] = target: Fuc(a1-2)[Gal(a1-3)]Gal(b1-4)GlcNAc(b1-2)Man(a1-3)[Fuc(a1-2)[Gal(a1-3)]Gal(b1-4)GlcNAc(b1-2)Man(a1-6)]Man(b1-4)GlcNAc(b1-4)[Fuc(a1-6)]GlcNAc
Outline: as §1

[15] = target: Fuc(a1-2)[Gal(a1-3)]Gal(b1-4)GlcNAc(b1-3)GalNAc
Outline: as §1

[16] = target: Fuc(a1-2)[Gal(a1-3)]Gal(b1-4)GlcNAc(b1-3)[Fuc(a1-2)[Gal(a1-3)]Gal(b1-4)GlcNAc(b1-6)]GalNAc
Outline: as §1

[17] = target: Fuc(a1-2)[Gal(a1-3)]Gal(b1-4)GlcNAc(b1-6)GalNAc
Outline: as §1

[18] = target: Fuc(a1-2)[Gal(a1-3)]Gal(b1-4)[Fuc(a1-3)]Glc
Outline: as §1

[19] = target: Fuc(a1-2)[Gal(a1-3)]Gal(b1-4)[Fuc(a1-3)]GlcNAc
Outline: as §1

[20] = target: Fuc(a1-2)[Gal(a1-3)]Gal(b1-4)[Fuc(a1-3)]GlcNAc(b1-3)GalNAc
Outline: as §1

[21] = target: Fuc(a1-2)[Gal(a1-4)]Gal(b1-4)GlcNAc
Outline: as §1

[22] = target: Fuc(a1-2)[GalNAc(a1-3)]Gal
Outline: as §1

[23] = target: Fuc(a1-2)[GalNAc(a1-3)]Gal(b1-3)GalNAc(a1-3)[Fuc(a1-2)]Gal(b1-4)GlcNAc
Outline: as §1

[24] = target: Fuc(a1-2)[GalNAc(a1-3)]Gal(b1-3)GalNAc(b1-3)Gal(a1-4)Gal(b1-4)Glc
Outline: as §1

[25] = target: Fuc(a1-2)[GalNAc(a1-3)]Gal(b1-3)GlcNAc
Outline: as §1

[26] = target: Fuc(a1-2)[GalNAc(a1-3)]Gal(b1-3)GlcNAc(b1-2)Man(a1-3)[Fuc(a1-2)[GalNAc(a1-3)]Gal(b1-3)GlcNAc(b1-2)Man(a1-6)]Man(b1-4)GlcNAc(b1-4)GlcNAc
Outline: as §1

[27] = target: Fuc(a1-2)[GalNAc(a1-3)]Gal(b1-3)GlcNAc(b1-2)Man(a1-3)[Fuc(a1-2)[GalNAc(a1-3)]Gal(b1-3)GlcNAc(b1-2)Man(a1-6)]Man(b1-4)GlcNAc(b1-4)[Fuc(a1-6)]GlcNAc
Outline: as §1

[28] = target: Fuc(a1-2)[GalNAc(a1-3)]Gal(b1-3)GlcNAc(b1-3)GalNAc
Outline: as §1

[29] = target: Fuc(a1-2)[GalNAc(a1-3)]Gal(b1-3)GlcNAc(b1-6)GalNAc
Outline: as §1

[30] = target: Fuc(a1-2)[GalNAc(a1-3)]Gal(b1-4)Glc
Outline: as §1

[31] = target: Fuc(a1-2)[GalNAc(a1-3)]Gal(b1-4)GlcNAc
Outline: as §1

[32] = target: Fuc(a1-2)[GalNAc(a1-3)]Gal(b1-4)GlcNAc(b1-2)Man
Outline: as §1

[33] = target: Fuc(a1-2)[GalNAc(a1-3)]Gal(b1-4)GlcNAc(b1-2)Man(a1-3)[Fuc(a1-2)[GalNAc(a1-3)]Gal(b1-4)GlcNAc(b1-2)Man(a1-6)]Man(b1-4)GlcNAc(b1-4)GlcNAc
Outline: as §1

[34] = target: Fuc(a1-2)[GalNAc(a1-3)]Gal(b1-4)GlcNAc(b1-2)Man(a1-3)[Fuc(a1-2)[GalNAc(a1-3)]Gal(b1-4)GlcNAc(b1-2)Man(a1-6)]Man(b1-4)GlcNAc(b1-4)[Fuc(a1-6)]GlcNAc
Outline: as §1

[35] = target: Fuc(a1-2)[GalNAc(a1-3)]Gal(b1-4)GlcNAc(b1-3)Gal(b1-4)GlcNAc
Outline: as §1

[36] = target: Fuc(a1-2)[GalNAc(a1-3)]Gal(b1-4)GlcNAc(b1-3)Gal(b1-4)GlcNAc(b1-3)Gal(b1-4)GlcNAc
Outline: as §1

[37] = target: Fuc(a1-2)[GalNAc(a1-3)]Gal(b1-4)GlcNAc(b1-3)GalNAc
Outline: as §1

[38] = target: Fuc(a1-2)[GalNAc(a1-3)]Gal(b1-4)GlcNAc(b1-3)[Fuc(a1-2)[GalNAc(a1-3)]Gal(b1-4)GlcNAc(b1-6)]GalNAc
Outline: as §1

[39] = target: Fuc(a1-2)[GalNAc(a1-3)]Gal(b1-4)GlcNAc(b1-6)GalNAc
Outline: as §1

[40] = target: Fuc(a1-2)[GalNAc(a1-3)]Gal(b1-4)[Fuc(a1-3)]GlcNAc
Outline: as §1

[41] = target: Fuc(a1-2)[GalNAc(a1-3)]Gal(b1-4)[Fuc(a1-3)]GlcNAc(b1-3)GalNAc
Outline: as §1

[42] = target: Fuc(a1-2)[GalNAc(a1-4)]Gal(b1-4)GlcNAc
Outline: as §1

[43] = target: Fuc(a1-2)[GalNAc(b1-3)]Gal
Outline: as §1

B1: Epa13 (Candida glabrata) (protein)
chain: MGSSHHHHHHSSGLVPRGSHMASDSSENGYAHGCSPSIRAKLKPGLSMEIYSYALRPTDDHCWDSAYLDPMFPRTGYLTHKLLGKAEGIIGPLNFLAKNPACIPAVSTLPLAFHFPKPFTITNFTMLLYGYLSPKKTGKYTFKLLADDLLLMNFGADNAFDCCSHDATKDNIGEYVAYSVWPGVNKNVTVYLESGIYYPLRLFFNNRDAIAQLDFAYYFNDSPIRQTDFSGMFFSIPDSVKCPANI
[1]
  glycan array binding signal (z-score): 0.747
Fuc(a1-2)Gal6S(b1-4)Glc
  glycan array binding signal (z-score): -0.561
[2]
  glycan array binding signal (z-score): -0.13
Fuc(a1-2)[Gal(a1-3)]Gal
  glycan array binding signal (z-score): -0.069
[3]
  glycan array binding signal (z-score): -0.035
[4]
  glycan array binding signal (z-score): -0.325
[5]
  glycan array binding signal (z-score): -0.328
[6]
  glycan array binding signal (z-score): -0.021
[7]
  glycan array binding signal (z-score): -0.414
[8]
  glycan array binding signal (z-score): 0.092
[9]
  glycan array binding signal (z-score): 0.078
[10]
  glycan array binding signal (z-score): -0.047
[11]
  glycan array binding signal (z-score): -0.32
[12]
  glycan array binding signal (z-score): -0.224
[13]
  glycan array binding signal (z-score): -0.007
[14]
  glycan array binding signal (z-score): -0.357
[15]
  glycan array binding signal (z-score): -0.237
[16]
  glycan array binding signal (z-score): -0.258
[17]
  glycan array binding signal (z-score): 0.058
[18]
  glycan array binding signal (z-score): -0.232
[19]
  glycan array binding signal (z-score): 0.02
[20]
  glycan array binding signal (z-score): 0.306
[21]
  glycan array binding signal (z-score): 9.27
[22]
  glycan array binding signal (z-score): -0.409
[23]
  glycan array binding signal (z-score): -0.396
[24]
  glycan array binding signal (z-score): -0.231
[25]
  glycan array binding signal (z-score): -0.092
[26]
  glycan array binding signal (z-score): -0.555
[27]
  glycan array binding signal (z-score): -0.076
[28]
  glycan array binding signal (z-score): 0.344
[29]
  glycan array binding signal (z-score): -0.155
[30]
  glycan array binding signal (z-score): -0.307
[31]
  glycan array binding signal (z-score): -0.539
[32]
  glycan array binding signal (z-score): -0.081
[33]
  glycan array binding signal (z-score): -0.51
[34]
  glycan array binding signal (z-score): -0.043
[35]
  glycan array binding signal (z-score): -0.383
[36]
  glycan array binding signal (z-score): -0.206
[37]
  glycan array binding signal (z-score): -0.377
[38]
  glycan array binding signal (z-score): 0.053
[39]
  glycan array binding signal (z-score): -0.44
[40]
  glycan array binding signal (z-score): 0.257
[41]
  glycan array binding signal (z-score): 1.95
[42]
  glycan array binding signal (z-score): -0.453
[43]
  glycan array binding signal (z-score): -0.312
